# Some of the results follow.
# B1: ENSG00000198589:be:win_9301|3pUTR|ENSG00000198589|bound_else_gene|NA|bound_elsewhere_windowed (ssRNA)
# RNA: GGGAGUUCUACAGUCCGACGAUCAGUACCAAAGCUCACUACUGCGGUUUGCCUGUGCCUGGACAAUGAGGCGGAGCCACUGUUGUUUUGUUGGGGCACCCCCUUCCCUCCCCGGGUUUGCAAAUAGAGGCUACCGGGUGCUGUCAACAGAGGAUUGAGCAUCA
# B2: chr15:77046177:77046188:-|3pUTR|ENSG00000140391|msi1_unk|total|mutant (ssRNA)
# RNA: GGGAGUUCUACAGUCCGACGAUCUUAAUCAAAGUUGGCUUUACCGGAGGAGUAUAAUGUAUGCACUACUGUUUUAAAAGAAUCCGUGUGAGUGUGUUUUUGUAUGAAUGAGCCCAUUCAUGGUAAGUCUUAAGCUUGUUGGAACAACAGAGGAUUGAGCAUCA
# B3: ENSG00000070961:be:win_3301|CDS|ENSG00000070961|bound_else_gene|NA|bound_elsewhere_windowed (ssRNA)
# RNA: GGGAGUUCUACAGUCCGACGAUCCGGCGUGGCCAAAUCUUGUGGUUUAGAGGUCUGAACAGAAUCCAAACACAGAUUCGAGUGGUGAAUGCAUUUCGUAGUUCUUUAUAUGAAGGGUUAGAAAAACCGGAAUCAAGAAGUUCGCAACAGAGGAUUGAGCAUCA
# B4: chrX:101625945:101626046:+|CDS|ENSG00000102401|unk|FALSE|unique (ssRNA)
# RNA: GGGAGUUCUACAGUCCGACGAUCAGGUUCACUUUUUUUCUUUUUAAAAGAAUUUCAAGUGUGUGCUGAUAAGGUUCUGGGAAUAGAAAGUCACCAUGAUUUUUUGGUGAAAGUAAAAGUUGGAAAAUUCAUGGCCAAACUUGCCAACAGAGGAUUGAGCAUCA
# B5: chr2:37256661:37256929:-|CDS|ENSG00000115825|control|control|control (ssRNA)
# RNA: GGGAGUUCUACAGUCCGACGAUCAGGAACUCCAGCAUACUUAGCCCCUGAAGUUCUCCGGAGCAAAGGUUACAACCGUUCCCUAGAUAUGUGGUCAGUGGGAGUUAUCAUCUAUGUGAGCCUCAGUGGCACAUUUCCUUUUAACAACAGAGGAUUGAGCAUCA
# B6: chr12:76028832:76028933:-|3pUTR|ENSG00000139289|msi1|FALSE|unique (ssRNA)
# RNA: GGGAGUUCUACAGUCCGACGAUCAAAGGAAAAGACUGGAUAAACACAGGAUUUUCAGUAAGAAAACAACCCCAGUCUUGUCUUAGAAGCCACUUGUUGAGGAGUCUGUUGGGGGAAAAAAGAGGAUAUGCUUUUAAAGGUAGACAACAGAGGAUUGAGCAUCA
# B7: chr6:41099391:41099486:+|3pUTR|ENSG00000001167|msi1_unk|total|mutant (ssRNA)
# RNA: GGGAGUUCUACAGUCCGACGAUCAGUGCUUAAGCUGCCAACAGUCCGAAGAUGCUAUUUAUUUGUGUCUGUAAGUUUGUACACCGUAAUGCCAGCCUUGUUGCUGAAUUUUUUAUUUGGGGGGAGAUGACUUUGAAUUUUGUUCAACAGAGGAUUGAGCAUCA
# B8: chr19:19111484:19111585:+|3pUTR|ENSG00000181035|msi1|total|mutant (ssRNA)
# RNA: GGGAGUUCUACAGUCCGACGAUCAGCCUCAUGUCUAUCCCCGACCCUGCAAGCAGCUGGGUCCCCAAGAGUGCAUCUCCCCCCCGAGUUGCCUGCCCAUGCCCACCUGCUUUGUAACCUUCCCAGGAGAUUCAUGCUUGCUCUCAACAGAGGAUUGAGCAUCA
# B9: chr15:82681419:82681580:-|CDS|ENSG00000103723|control|control|control (ssRNA)
# RNA: GGGAGUUCUACAGUCCGACGAUCCAGUGCCCUCCGUGUCCUCUCUAGCAUCCGUGUGCCCAUCAUAGUGCCCAUCAUGAUGCUAGCUAUCAAGGAAGCCGCCUCGGACAUGUCACCCUAUGUGCGGAAAACAGCUGCCCACGCCAACAGAGGAUUGAGCAUCA
# B10: chr7:20410991:20411126:+|3pUTR|ENSG00000105855|msi1|FALSE|unique (ssRNA)
# RNA: GGGAGUUCUACAGUCCGACGAUCAAAUUCUGCCUCAAGCAAAGUACCACAUUUUGAAUGUUUUCUUAGAUUUUGAUUGCAAGUAGAUAUCAGCAUUUUUUAAAUGAAAAGCUAUAUUAUCUUCUCCCUUCAAGGCAGCCUAAGCAACAGAGGAUUGAGCAUCA
# B11: chr17:58495858:58495960:-|CDS|ENSG00000108389|unk|total|mutant (ssRNA)
# RNA: GGGAGUUCUACAGUCCGACGAUCAGAAGAGACUAAGGGACCAGCUCCAGACCCUUCUGCCCAGGAUGAGCUGGGCCGGACUUCCGAUGGCACCGGGGAGCCACCUGAACAUUGUCCUGAAACAGAAGCUGUCAGUGCACUCUCCAACAGAGGAUUGAGCAUCA
# B12: chr9:26926431:26926536:-|CDS|ENSG00000137055|unk|FALSE|bound_elsewhere (ssRNA)
# RNA: GGGAGUUCUACAGUCCGACGAUCAGAGGUUUGGCAAUUUUGAGUGAAACAGAAUUUCUUUCCUGUGCAAAUGAUGCUAGUAUUAGAAGGUGGCAAAUCACUGGCGAGUGUCUUGAAGUAUAUUAUGGACAUACAAAUUAUAUUCAACAGAGGAUUGAGCAUCA
# B13: ENSG00000198589:be:win_1501|CDS|ENSG00000198589|bound_else_gene|NA|bound_elsewhere_windowed (ssRNA)
# RNA: GGGAGUUCUACAGUCCGACGAUCUUGCUGGCCUUUAUCAUGGAAUUGUUGAAGAACUCAAUUGCUAUGCAGGAACAGAUGCUUGCCUGUAAGGGCUUCUUGGUAAUAGGAUAUAGCCUUGAAAAGUCUUCCAAAUCUCAUGUUCAACAGAGGAUUGAGCAUCA
# B14: chr1:32075697:32075801:+|CDS|ENSG00000121775|unk|FALSE|unique (ssRNA)
# RNA: GGGAGUUCUACAGUCCGACGAUCCGAGCUGCCAGUCCAGGCCAGCAUUCUGUUUGAGUUGCAGCUCUUCUUCUGCCAGCUCAUAGCACUCUUCGUCCACUACAUCAACAUCUACAAGACAGUGUGGUGGUAUCCACCUUCCCACAACAGAGGAUUGAGCAUCA
# B15: chr7:92618090:92618217:-|CDS|ENSG00000105810|unk|FALSE|bound_elsewhere (ssRNA)
# RNA: GGGAGUUCUACAGUCCGACGAUCUAUGUCCAUGUGUGGUUCUUUUGUAGCGUGAUUGGACUCCCAGGAGAAGAAGACUGGCCUAGAGAUGUUGCCCUUCCCAGGCAGGCUUUUCAUUCAAAAUCUGCCCAACCAAUUGAGAAGCAACAGAGGAUUGAGCAUCA
# B16: chr4:56461171:56461272:+|3pUTR|ENSG00000128050|msi1|total|mutant (ssRNA)
# RNA: GGGAGUUCUACAGUCCGACGAUCCUUCUGUAACCACAGUGACUACAAGCCGUUCUUUCUCUAUUGAAUUAUCCGGUCCAGAACCGAAGAUGUCAUUGUACACUUUAUUUCCCUCACACUGUGUUAUGCUCUGAUGUGCUAUGCCAACAGAGGAUUGAGCAUCA
# B17: ENSG00000122863:stop:overlap|stop_codon|ENSG00000122863|stop_codon|NA|stop_codon (ssRNA)
# RNA: GGGAGUUCUACAGUCCGACGAUCCCGCCCUCACCAACCGCUCAGUCAGCCUGCUGGAGGAGAGGGGCACCUUCUGGGUCACGUAGGGGGGCCGGGGCCCCGUAUGCCCCUCCUCGUGAAAGGCCUGCCCCGUCUUUCUGCCGCCAACAGAGGAUUGAGCAUCA
# B18: chr3:125012942:125013043:-|CDS|ENSG00000173706|msi1|total|mutant (ssRNA)
# RNA: GGGAGUUCUACAGUCCGACGAUCGCCUCUUAUGACCACUCCUGGCACCCUGUCAAGCACAGCAUCUCUGGUCACUGGCCCUACCGCCGUACAGACUACAGCUGGAAAACAGCUCUCGCUGACCCAUCCUGAAAUACCCGUUCCCAACAGAGGAUUGAGCAUCA
# B19: chrX:24560996:24561098:-|3pUTR|ENSG00000102230|unk|FALSE|unique (ssRNA)
# RNA: GGGAGUUCUACAGUCCGACGAUCACUCAAGACUUUUUACAGAGAACUGUGGGCUCAGUUAUGAUCUCAGCAUCUGAAUGGUCUAGGUAGUAUCACCAUUAUCUCUGGCCCUAGGUUUGCCAAGUAGGAUGAAGACUCUAAGUGCAACAGAGGAUUGAGCAUCA
# B20: chr10:29523788:29523889:-|CDS|ENSG00000197321|unk|total|mutant (ssRNA)
# RNA: GGGAGUUCUACAGUCCGACGAUCAAUGCAAGUGCCACUGACUAUAAGUUUUCUUCUUCAACCGAAAAUUCGGACUCUCCAGUCCGAAGCAUUCUGAAAUCGCAAGCUUGGCAGCCUUUGGCCGAGGGCCGCGAGAACAAGGGACAACAGAGGAUUGAGCAUCA
# B21: chr15:43232589:43233190:-|three_prime_utr|ENSG00000104055|control|control|control (ssRNA)
# RNA: GGGAGUUCUACAGUCCGACGAUCGCUCCAGCAAGAGCCACAGAGGGGAUGACGUGUUCAUUUUCUGUCUCUCCUGACUCCACUAGAAAUUUAAGCUCCAUGAGGGCAAAGACUUUGCUUUGUUUACUACCCCUAUACUCAGAACAACAGAGGAUUGAGCAUCA
# B22: chr1:214663888:214664008:+|3pUTR|ENSG00000117724|msi1|FALSE|bound_elsewhere (ssRNA)
# RNA: GGGAGUUCUACAGUCCGACGAUCAGGAGAAAACAAUUCCUUAGAAGUCUUAAAUAUAUUGUACUCUUUAGAUCUCCCAUGUGUAGGUAUUGAAAAAGUUUGGAAGCACUGAUCACCUGUUAGCAUUGCCAUUCCUCUACUGCACAACAGAGGAUUGAGCAUCA
# Target: MSI1 full-length (mouse, UniProt Q61474 1-362)
# Assay: nsRBNS (natural sequence RNA bind-n-seq); RBNS binding buffer (assumed for nsRBNS): 25 mM Tris pH 7.5, 150 mM KCl, 3 mM MgCl2, 0.01% Triton X-100, 500 ug/ml BSA, 20 U/ml SUPERase-In, 4 C; UNK is unkempt and MSI1 is Musashi-1; names of the RNAs are library labels; protein concentration not given here; high values mean tight binding
# Sequence of UniProt Q61474 (Q61474 whole entry): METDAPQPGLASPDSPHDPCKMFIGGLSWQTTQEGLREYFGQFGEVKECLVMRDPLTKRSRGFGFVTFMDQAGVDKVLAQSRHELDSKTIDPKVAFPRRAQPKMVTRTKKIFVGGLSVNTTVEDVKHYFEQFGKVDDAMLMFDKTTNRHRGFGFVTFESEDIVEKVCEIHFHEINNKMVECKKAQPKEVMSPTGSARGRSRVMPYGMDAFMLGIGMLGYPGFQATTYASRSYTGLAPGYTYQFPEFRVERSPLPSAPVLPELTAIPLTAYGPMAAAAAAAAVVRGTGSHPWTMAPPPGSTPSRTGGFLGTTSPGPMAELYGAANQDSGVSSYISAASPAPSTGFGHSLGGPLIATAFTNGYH
row,Binder,binding signal [enrichment R]
1,B1,0.999
2,B2,0.367
3,B3,0.461
4,B4,0.252
5,B5,0.717
6,B6,0.854
7,B7,0.487
8,B8,0.76
9,B9,0.413
10,B10,0.37
11,B11,0.318
12,B12,1.39
13,B13,0.344
14,B14,0.42
15,B15,0.383
16,B16,0.292
17,B17,0.62
18,B18,0.515
19,B19,1.2
20,B20,0.214
21,B21,1.39
22,B22,16.4

# From article PMC12136788
